According to the RNAGym collection of RNA variant scans (doi:10.1093/nar/gkz1192):
Read counts are not given, so values of variants with three or more changes are uncertain.

B1: CPEB3 Ribozyme (parent)
chain: UAACAGGGGGCCACAGCAGAAGCGUUCACGUCGCAGCCCCUGUCAGAUUCUGGUGAAUCUGCGAAUUCUGCUGUAUAUCUC

Variants of: B1
Test: self-cleavage, relative activity (ratio to wild type); higher = more cleavage; in vitro, sequencing
Procedure, shortened: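 Relative activity compares each variant's cleaved/total read fraction with that of the unmutated ribozyme. To get these fractions, barcoded CPEB3 ribozyme libraries from rounds of error-prone PCR were transcribed with T7 RNA polymerase for 5 hours at 37°C and then given 15 min of DNase I treatment before EDTA was added. The RNAs were reverse transcribed with template switching and sequenced on Illumina, and DNA sequencing linked barcodes to variants. A minimum of 5 reads applied, and three batches were averaged.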

| Variant | self-cleavage |
| --- | --- |
| UAACAGGGGGCCACAGCAGAGGCGCUCGCGUCGCAGCCCCUGCCAGAUUCUGGUGAAAUUGCGAAUCCUGCUGUAUAUCUC [A21G U25C A28G U43C U58A C59U U67C] | 0.48 |
| UAACAGGGGGCCACAGCAGAGGCGUUCACGUCGCAGCCCCUAUCAGAUUCUGGUGAAUAUGCGAGUUCUGCUGUAUAUCUC [A21G G42A C59A A65G] | 0.13 |
| UAACAGGGGGCCACAGCAGAGACGUUCACGUCGCAGCCCCUGUCAGAUUCUGGUGAAUCUGCGAACUCUGCUGUAUAUCAC [A21G G22A U66C U80A] | 0.11 |
| UAACAGGGGGCCACAGCAGAGGCGUUCACGUCGCAGCCCCUAUCAGAUUCUGGUGUGUCUGCGAAUUCUGCUGUGUAUCUC [A21G G42A A56U A57G A75G] | 0.05 |
| UAACAGGGGGCCACAGCAGAGGCAUUCACGUCGCAGCCCCCGCCAGAUUCUGGUGAAUCUGCGAAUUCUGCUGUAUAUCUC [A21G G24A U41C U43C] | 0.37 |
| UAACAGGGGGCCACAGCAGAGGCGUUCACGUCCCAGCCCCUGUCAGAUUCUGGUGUAUCUGCGAAUUCUGCAGUAUAUCUC [A21G G33C A56U U72A] | 0.09 |
| UAACAGGGGGCCACAGCAGAGGCGCUCACGUCGCAGCCCCUUUCAGAUUCUGGUGAAUCUGCGAUUUCUGCUGUAUAUCUC [A21G U25C G42U A65U] | 0.07 |
| UAACAGGGGGCCACAGCAGAGGCGAUCACGUCGCUGUCCCUGUCAGAUUCUGGUGAAUCUGCGAAUUCUGCUGUAUAUCUC [A21G U25A A35U C37U] | 0.13 |
| UAACAGGGGGCCACAGCAGAGGCGUUCACGUCGCACCCCCCGUCAUAUUCUGGCGAAUCGGCGAAUUCUGCUGUAUAUCUC [A21G G36C U41C G46U U54C U60G] | 0.04 |
| UAACAGGGGGCCACAGCAGAGGCGUUCACGUCGCAGCCCCUGUCAGAUUCUAGUGAAUCUGCGAACUCCGCUGUAUAUCUC [A21G G52A U66C U69C] | 0.79 |
| UAACAGGGGGCCACAGCAGAGGCGCUCACGUCGCAGCCCCUGUCAGAUUCUGGUGAAUCUGCGAACUCUGCUGUAUAUCCC [A21G U25C U66C U80C] | 0.13 |
| UAACAGGGGGCCACAGCAGAGGCGUUCACGUCCCAGCCCCUGUCAGAUCCUGGUGAAUCUGCGAAUCCUCCUGUAUAUCUC [A21G G33C U49C U67C G70C] | 0.12 |
| UAACAGGGGGCCACAGCAGAGGCGCUCACGUCGCAACCCCUGUCAGAUUCUGGUGAAUCUGCGAAUUCUGCGGUAUAUCUC [A21G U25C G36A U72G] | 0.06 |
| UAACAGGGGGCCACAGCAGAGGCAUUCGCGUCGCAGCCCCUGUCGGAUUCUGGUGAAUCUGCGAAUUCUACUGUUUAUCUC [A21G G24A A28G A45G G70A A75U] | 0.33 |
| UAACAGGGGGCCACAGCAGAGGCGUUCACGUCGCACCCCCUGUAGGAUUCUGGUGAAUCUGCGAAUUCUGCUGUAUAUCUC [A21G G36C C44A A45G] | 0.16 |
| UAACAGGGGGCCACAGCAGAGGCGCUCACGUCGCAGCCCCUGUCAGAUUCUGGUGAAUCUGCGUAUUCUGCUGCAUAUCUC [A21G U25C A64U U74C] | 0.06 |
| UAACAGGGGGCCACAGCAGAGGCGUUCACAUCGCAGCCCCCGUCAGAUUCUGGUGGAUCUGCGAAUUCUGCUGUAUAUCUC [A21G G30A U41C A56G] | 0.18 |

| Variant | self-cleavage |
| --- | --- |
| UAACAGGGGGCCACAGCAGAGGCGCUCACGUCGCAGCCCCUGUCAGAUUCCGGCGAAUCUGCGAAUUCUGCUGUAUAUCUC [A21G U25C U51C U54C] | 0.25 |
| UAACAGGGGGCCACAGCAGAGGCGUUCACGUCACAGCCCUAGUCAGAUUCUGGUGAAUCCGCGAAUUCUGCUGUAUAUCUC [A21G G33A C40U U41A U60C] | 0.13 |
| UAACAGGGGGCCACAGCAGAGGCGUUCACGUCGCAGCCCCUGUCAGAUUCUGGUGAAUCUGCAAAUUCUGCUGUAUACCUC [A21G G63A U78C] | 0.4 |
| UAACAGGGGGCCACAGCAGAGGCGUUCACGUCGCAGCCCCUGUCAGAUUCUGGUGAAUAUGCGAAUUCUACUGUAUAUCUC [A21G C59A G70A] | 0.25 |
| UAACAGGGGGCCACAGCAGAGGCCUUCACGUCGCAGCCCCUGUCAGAUUCUGGUGAAUCUGCGAAUUCAGCUGAAUAUCUC [A21G G24C U69A U74A] | 0.07 |
| UAACAGGGGGCCACAGCAGAGGCGUUCACCUCGCAGCCCCAGUCCGAUUCUGGUGGAUCUGCGAAUUCUGCUGUAUAUCUC [A21G G30C U41A A45C A56G] | 0.25 |
| UAACAGGGGGCCACAGCAGAGGCGCUCACGUCGCAGCCCCAGUCAGAAUCUGGUGAAUCUGCGAAUUCUGCUGUAUAUCUC [A21G U25C U41A U48A] | 0.24 |
| UAACAGGGGGCCACAGCAGAGGCGCUCACGUCGCAGCCCCCGUCAGAUUCUGGUGAAUCCGCGAAUUCUGCUGUAUAUCAC [A21G U25C U41C U60C U80A] | 0.27 |
| UAACAGGGGGCCACAGCAGAGGCGCUCACGUCGCAGCCCCUGCCAGAAUCUGGUGAAUAUGCGAAUUCUGCAGUACAUCUC [A21G U25C U43C U48A C59A U72A U76C] | 0.05 |
| UAACAGGGGGCCACAGCAGAGGCGUUCACAUCGCAGCACCUGUCAGAUUCUGGUGAAUCUGCGAACUCUGCCGUAUAUCUC [A21G G30A C38A U66C U72C] | 0.22 |
| UAACAGGGGGCCACAGCAGAGGCGUUCACGUCGCAGCCCUUGUCAGAUUCUGGUGAAUCUGCGAAUUCUGCUGUAAAUCUC [A21G C40U U76A] | 0.17 |
| UAACAGGGGGCCACAGCAGAGGCGCUCACGUCGCAGCCCCUGUCGGAUUCUGGUGAAUCUGCGAAUUCUGCUGUAUAUCAC [A21G U25C A45G U80A] | 0.16 |
| UAACAGGGGGCCACAGCAGAGGCGUUCACGUCGCAGCCCUUGUCAGAAUCUGGUGAAUCUGCGUAUUCUGCUGUAUAUCUC [A21G C40U U48A A64U] | 0.11 |
| UAACAGGGGGCCACAGCAGAGGCGCUCACGACGCAGCCCCUGACACAUUCUGGUGAAUCUGCGAAUUCUGCUGUAUAUCUC [A21G U25C U31A U43A G46C] | 0.06 |
| UAACAGGGGGCCACAGCAGAGGCGCUCUCGUCGCAGCCCCUGUCAGAUUCUGGUGAAUCUGCGAAUUCUGCUGUAAAUCCC [A21G U25C A28U U76A U80C] | 0.11 |
| UAACAGGGGGCCACAGCAGAGGCGUUCACGUCGCAGCCCCUGUAAGAUUCUGGUGAAUCUGCGAAUCCUGCUGUAUAUCUC [A21G C44A U67C] | 0.19 |
| UAACAGGGGGCCACAGCAGAGGCGUUCACGUCGCAGCCCCUGUCAGAUUCUGGUAAAUCUGCGAAUUCUGCUGUAUAUCCC [A21G G55A U80C] | 0.47 |
